Laboratory results from article PMC9917443 (eLife, 2023).
pKd: −log10 of the molar value. “Also recorded” adds a separate entry of the source.

How the values were obtained:
[1] = test system: purified recombinant SD1/2 protein; assay: ITC binding of peptides to purified recombinant SD1/2 protein; settings: for pKd: 25°C, 20 mM NaPi (pH 6.8), 50 mM NaCl, 0.5 mM EDTA
Excerpt: We purchased APP17 and scrambled sc-APP17 peptides from the same commercial provider as Rice and colleagues ([Rice et al., 2019]; Figure 1A). For displacement experiments, we additionally synthesized fluorescent APP17-TMR and sc-APP17-TMR peptides labeled with TAMRA (5 (6)-carboxytetramethylrhodamine; Figure 1A). […]. […] In all subsequent experiments, we used the commercial APP17 peptide validated for binding to recombinant SD1/2 protein and GB1a/2 receptors in HEK293T cells.
APP17 (Ac-[…]-NH2; [Rice et al., 2019]) and sc-APP17 (acetyl-[…]-amide) peptides were from Insight Biotechnology, London, England (>98% purity). ESI-LC-MS (Poroshell, 300 SB-C18, 2.1×75 mm, Agilent Technologies, Santa Clara, CA, USA) and RP-UPLC (Acquity, Waters Corporation, Milford, CT, USA) were used to confirm peptide mass and purity, respectively. ITC experiments were carried out in a microcalorimeter (Microcal ITC200, GE Healthcare, Chicago, IL, USA) at 25°C with a stirring speed of 600 rpm in a buffer containing 20 mM NaPi (pH 6.8), 50 mM NaCl, and 0.5 mM EDTA. For titration, APP17 or sc-APP17 (each 300 μM) were injected (first injection 0.5 μl, followed by 25 injections of 1.5 μl) into the sample cell containing purified recombinant SD1/2 protein (30 μM) ([Schwenk et al., 2016]). Control measurements of peptide versus buffer were subtracted from the peptide versus SD1/2 measurements. Data were analyzed with Microcal ITC200 Origin software, using a one-site binding model.

GB1a/2 receptors [2] = molecular target: T1, GB1a/2 receptors (Homo sapiens, UniProt O75899+Q9UBS5); assay: BRET assay of G protein activation (Gαo-RLuc / Venus-Gγ2) in HEK293T cells; type: cell-based; set-up: Flag (N); expressed in transfected cells; host or cells: HEK293T cells stably expressing chimeric Gαqi; settings: for BRET change by peptide alone (in words): 1 or 10 μM peptide, no APP695; for BRET change by peptide with APP695 (in words): APP695 in cis or in trans, 1 or 10 μM; for GABA-induced BRET change in presence of peptide (in words): peptide and GABA at 1 or 10 μM
T1 sequence (Q9UBS5 15-961 limits assumed): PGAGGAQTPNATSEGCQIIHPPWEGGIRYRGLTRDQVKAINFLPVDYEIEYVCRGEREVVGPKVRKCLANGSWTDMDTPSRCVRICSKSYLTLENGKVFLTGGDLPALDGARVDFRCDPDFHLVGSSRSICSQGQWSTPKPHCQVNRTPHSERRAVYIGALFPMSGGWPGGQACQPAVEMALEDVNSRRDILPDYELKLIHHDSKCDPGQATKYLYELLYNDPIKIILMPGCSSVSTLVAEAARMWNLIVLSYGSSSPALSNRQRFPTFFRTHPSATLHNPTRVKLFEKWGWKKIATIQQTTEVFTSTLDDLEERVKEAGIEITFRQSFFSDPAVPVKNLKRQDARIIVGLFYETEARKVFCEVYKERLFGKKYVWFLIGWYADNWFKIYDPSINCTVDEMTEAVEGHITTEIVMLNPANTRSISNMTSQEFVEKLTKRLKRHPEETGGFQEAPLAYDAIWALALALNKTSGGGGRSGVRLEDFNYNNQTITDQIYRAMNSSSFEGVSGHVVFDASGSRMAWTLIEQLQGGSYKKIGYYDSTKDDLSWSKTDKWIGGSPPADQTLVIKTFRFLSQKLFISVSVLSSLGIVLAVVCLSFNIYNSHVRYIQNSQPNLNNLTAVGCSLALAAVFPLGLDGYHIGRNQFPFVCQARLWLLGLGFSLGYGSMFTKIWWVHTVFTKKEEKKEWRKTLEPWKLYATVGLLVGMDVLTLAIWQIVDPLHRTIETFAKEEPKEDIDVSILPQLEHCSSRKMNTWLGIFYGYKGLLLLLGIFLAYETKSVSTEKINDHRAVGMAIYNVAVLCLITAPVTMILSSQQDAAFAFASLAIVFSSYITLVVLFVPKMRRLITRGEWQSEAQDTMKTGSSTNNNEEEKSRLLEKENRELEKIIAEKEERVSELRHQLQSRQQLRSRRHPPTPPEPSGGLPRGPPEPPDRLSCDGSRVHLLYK
T1 sequence (O75899 42-941 partner): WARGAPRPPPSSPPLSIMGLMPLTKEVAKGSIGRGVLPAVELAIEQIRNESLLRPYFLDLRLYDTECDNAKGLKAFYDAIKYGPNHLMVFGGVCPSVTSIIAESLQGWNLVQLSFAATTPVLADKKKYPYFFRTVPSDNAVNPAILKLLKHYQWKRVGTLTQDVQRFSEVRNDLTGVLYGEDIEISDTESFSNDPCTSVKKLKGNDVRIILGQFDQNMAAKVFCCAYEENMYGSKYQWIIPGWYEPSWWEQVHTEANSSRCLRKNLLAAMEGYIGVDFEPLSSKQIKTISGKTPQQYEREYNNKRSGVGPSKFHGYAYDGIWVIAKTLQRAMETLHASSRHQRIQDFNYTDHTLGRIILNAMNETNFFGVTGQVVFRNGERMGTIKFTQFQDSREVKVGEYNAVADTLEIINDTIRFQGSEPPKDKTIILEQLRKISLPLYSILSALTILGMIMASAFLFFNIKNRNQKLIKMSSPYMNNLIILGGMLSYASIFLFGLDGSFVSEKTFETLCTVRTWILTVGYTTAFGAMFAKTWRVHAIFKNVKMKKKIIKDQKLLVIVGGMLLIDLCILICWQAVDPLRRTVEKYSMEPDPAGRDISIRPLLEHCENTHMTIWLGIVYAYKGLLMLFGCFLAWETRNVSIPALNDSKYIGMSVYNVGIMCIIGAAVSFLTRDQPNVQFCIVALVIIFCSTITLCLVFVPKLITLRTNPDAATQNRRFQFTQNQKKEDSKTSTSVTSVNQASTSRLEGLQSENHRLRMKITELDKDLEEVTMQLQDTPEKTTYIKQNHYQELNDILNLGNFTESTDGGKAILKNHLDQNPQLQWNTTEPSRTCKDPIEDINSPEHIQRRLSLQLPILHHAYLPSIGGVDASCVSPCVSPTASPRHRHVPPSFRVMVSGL
Method: We directly tested whether APP17 influences G protein activation by GBRs in transfected HEK293T cells. […] HEK293T cells were transiently transfected with Flag-GB1a, Flag-GB2, Gαo-RLuc, Gβ2, and Venus-Gγ2 plasmids with or without APP695. In order to ensure APP695 binding to GB1a/2 in trans a pool of HEK293T cells expressing APP695 was mixed with a pool of HEK293T cells expressing Flag-GB1a, Flag-GB2, Gαo-RLuc, Gβ2, and Venus-Gγ2. Transfected cells were seeded into 96-well microplates (Greiner Bio-One) at 100,000 cells/well. After 18 hr, cells were washed and coelenterazine h (5 µM, NanoLight Technologies, Prolume Ltd., Pinetop-Lakeside, AZ, USA) added for 5 min. […] BRET ratios were adjusted by subtracting the ratios obtained when RLuc fusion proteins were expressed alone. Each data point represents a technical quadruplicate.

[3] = test system: GB2 protein levels at glutamatergic synapses; assay: GB2 immunofluorescence at vGluT1/PSD95 synapses of cultured hippocampal neurons; type: cell-based, mouse; settings: 5 μM, 1 hr; DIV14
Method: It is conceivable that prolonged exposure of cultured hippocampal neurons to APP17 affects synaptic GBR levels, for example, by stabilizing GB1a/2 receptors at the cell surface or displacing APP from GB1a/2 receptors ([Hannan et al., 2012]; [Dinamarca et al., 2019]). […] The functional effects of APP17 previously observed in cultured neurons ([Rice et al., 2019]) are therefore not caused by altered GBR levels at synapses.
Cultured hippocampal neurons (DIV14) on glass coverslips were treated with 5 µM APP17 or sc-APP17 for 1 hr, fixed with PBS (Life Technologies) containing 4% PFA (Sigma) and 4% sucrose (Sigma) and permeabilized with PBS containing 0.2% Triton X-100 (Sigma) and 10% normal donkey serum (Abcam). Neurons were washed with PBS and blocked with PBS containing 10% normal donkey serum (Abcam). Primary guinea pig anti-GB2 (Synaptic Systems), rabbit anti-vGluT1 (Synaptic Systems), and mouse anti-PSD-95 (Synaptic Systems) antibodies were incubated for 2 hr at room temperature. For GBR quantification, we used a GB2 antibody because the available GB1a antibody may compete with APP17 for binding to SD1. […] The GB2 fluorescence in z-stacked (maximum intensity) images was quantified at these synapses. The average GB2 fluorescence at synapses for each image represents one data point in Figure 6B.

GB1a/2 receptors [4] = molecular target: T1, GB1a/2 receptors; assay: SRE-luciferase accumulation assay (Gαqi/PLC) in HEK293T-Gαqi cells; settings: for Bottom (best-fit): Std. Error r35, 95% CI r41; for Top (best-fit): Std. Error r36, 95% CI r42
[5] = Fig.5a, linear regression vs Log [Agonist] (M), 60 values, best-fit
[6] = GB1a/2, GABA curve with 1μM peptide, different curve for each data set
[7] = GB1a/2, GABA curve with 10μM peptide, different curve for each data set

Row | Substance | binding to SD1/2 (in words) [1] | pKd ([1]; scrambled control) | BRET change by peptide alone (in words) (GB1a/2 receptors [2]) | BRET change by peptide with APP695 (in words) (GB1a/2 receptors [2]) | GABA-induced BRET change in presence of peptide (in words) (GB1a/2 receptors [2]) | GB2 protein levels at glutamatergic synapses (in words) [3] | pKd ([1]; SD1/2 30 μM, peptide 300 μM in syringe, one-site binding model) | effect on constitutive receptor activity (in words) (GB1a/2 receptors [4]; 1 and 10 μM) | effect on GABA dose-response curve (in words) (GB1a/2 receptors [4]; 1 h pre-incubation, 1 or 10 µM, absence or presence of APP695 in cis) | 1/slope (linear regression of dose-response) (GB1a/2 receptors [4]; [5]) | Slope (linear regression of dose-response) (GB1a/2 receptors [4]; [5]) | X-intercept (linear regression of dose-response) (GB1a/2 receptors [4]; [5]) | Y-intercept (linear regression of dose-response) (GB1a/2 receptors [4]; [5]) | Bottom (best-fit) (GB1a/2 receptors [4]; [6]) | Top (best-fit) (GB1a/2 receptors [4]; [6]) | Bottom (best-fit) (GB1a/2 receptors [4]; [7]) | Top (best-fit) (GB1a/2 receptors [4]; [7]) | LogEC50 of GABA (best-fit) (GB1a/2 receptors [4]; GB1a/2, Log [GABA] (M), with 10μM peptide, different curve for each data set, Std. Error r37, 95% CI r43) | agonistic effect on FLuc activity (in words) (GB1a/2 receptors [4]; up to 100 μM)
1 | Ac-DWGADTVSGDGYDAWDD-NH2 [sc-APP17, scrambled sc-APP17 peptide] | no detectable binding to SD1/2; also recorded: no binding to SD1/2 protein | < 3.52 | did not significantly influence receptor activity | had no effect on GBR activity | GABA-induced BRET decreases were similar | did not result in a significant difference in GB2 protein levels at glutamatergic synapses |  |  |  |  |  |  |  |  |  |  |  |  | 
2 | Ac-DDSDVWWGGADTDYADG-NH2 [APP17] |  |  | did not significantly influence receptor activity | had no effect on GBR activity | GABA-induced BRET decreases were similar | did not result in a significant difference in GB2 protein levels at glutamatergic synapses | 6.27 | did not influence constitutive GB1a/2 receptor activity | did not significantly influence the GABA dose-response curve | 119.3 | 0.008385 | -45.72 | 0.3833 | 0.3131 | 1.014 | 0.3136 | 0.9838 | -6.42 | lacked agonistic properties at concentrations up to 100 μM
